{"source": "paper PMC12136788", "binders": {"B1": {"name": "chr10:122565287:122565288:-_ENSMUSG00000020124_ENSMUST00000020334|mus_mus|FALSE|FALSE (ssRNA)", "RNA": "GGGAGUUCUACAGUCCGACGAUCAAUUUUGGGCACAAUAACUUUGUAUUGCAUAGGUUUAGCAAGUGGAUCCAUUCUAACUAAAUAAACUUCCAAGCUACGUUCUUUUUUCAUAGGCAAUGGAAGAGUCAAGUAACAGAAAGGCAACAGAGGAUUGAGCAUCA"}, "B2": {"name": "chrX:98862621:98862622:+_ENSMUSG00000034160_ENSMUST00000044475|mus_hu|mus_mus_mus_hu_False|58_78 (ssRNA)", "RNA": "GGGAGUUCUACAGUCCGACGAUCCUGCAUCUCCUUUAGAGUGUUUCCCAUAUUAGAAUAAGCAUCAGCAAAGGUAGGACUAAUUCGAAUAGCCUCCUUAUAAUGCAUCAGAGCUUCCUGCAGUUUUCCCUGCUGCUGCAGUACCAACAGAGGAUUGAGCAUCA"}, "B3": {"name": "chr9:95013113:95013114:-_ENSG00000196305_ENST00000443024|hu_hu|hu_hu_hu_mus_False|18_18 (ssRNA)", "RNA": "GGGAGUUCUACAGUCCGACGAUCCUCAGUCAGAAAGGGCGUGUAAGGGGCCAUCAGUCUGCACAGAGAAAGCAGGACACUGAACAGUGUCUCCAGAGCCAUGACACAGUCUUCCACCCCAUUUUCACCCUUUAACCUCCUCCUCAACAGAGGAUUGAGCAUCA"}, "B4": {"name": "chr6:97339032:97339033:-_ENSG00000123545_ENST00000316149|hu_mus|FALSE|FALSE (ssRNA)", "RNA": "GGGAGUUCUACAGUCCGACGAUCUCUUCAUUUUGAUUGUAUUGCUUUCCUGUCUUCUGGAGGUAAGAUUUUGACUUCAAAAGUAACAAAAUAUUUGAGAAGGGAAUUUACAUCCUUCAGUUCUAAAUAGUACUCUUGAGCGAUCAACAGAGGAUUGAGCAUCA"}, "B5": {"name": "64617805_64618362_1239_CDS_ENSMUSG00000024588_ENSMUST00000025484|mouse|control|control (ssRNA)", "RNA": "GGGAGUUCUACAGUCCGACGAUCCAGACUCAACUGCGUGGAGCACAGCUUGUUGGACUGGAUGUGGGAGUGCACCAGAUCAGCCAGGGCCUUGGAGAACAAUGGAUUUCCAUUAAGAGACUCCGCUCUUCUGAUGUUCUCAGCCAACAGAGGAUUGAGCAUCA"}, "B6": {"name": "chr5:74677807:74677808:-_ENSG00000113163_ENST00000380494|hu_hu|FALSE|FALSE (ssRNA)", "RNA": "GGGAGUUCUACAGUCCGACGAUCACGGACACAUCGGUUGUUUAGAGGAGCACUGUCAUGAUCCACAGAAAAAUUACAAACUAUCCAAGUUUCAGGGUCAUUUUCAGUCAAGGCUGGUAUCUUUCGAAUGACAGAAAGAUAUAACAACAGAGGAUUGAGCAUCA"}, "B7": {"name": "chr2:235962676:235962677:+_ENSG00000130147_ENST00000392011|hu_hu|FALSE|FALSE (ssRNA)", "RNA": "GGGAGUUCUACAGUCCGACGAUCCCCCCAUUCGUUAAAAAAGUGAUUUUAAAUUUAAAUUUAUACUUAACAAAUAGAAAGCUAUGUGAUUGGCAACGAGCUGCAGUAGGCAGUCCCUUCAGGCCUCUCCCUCGAUGGAGGAGGCAACAGAGGAUUGAGCAUCA"}, "B8": {"name": "chr5:33170631:33170632:-_ENSMUSG00000054280_ENSMUST00000120129|mus_mus|motif|central (ssRNA)", "RNA": "GGGAGUUCUACAGUCCGACGAUCGGAAUGGCACAGAGUAGCCUUCGGCUUUGGUAUGUGGCUGCGCAAGUUCUCGCGGGCGGCGGUUUCAGGUUCCAAUGGCUUGGCAGGCACAGUACAUGGGCUGAGAAGUCUGUGUGCUUUCAACAGAGGAUUGAGCAUCA"}, "B9": {"name": "chr4:76721835:76721836:+_ENSG00000138768_ENST00000264904|hu_mus|hu_hu_hu_mus_True|1_108 (ssRNA)", "RNA": "GGGAGUUCUACAGUCCGACGAUCGUUGGCUGGGGUUUUCUGAGACGCUCUGGAAUAUAACUCAUGUUUGCUAAUAAAUCCUAGUUUCUCUAUGAAAUUCUCUUUGCCAAUCCUCUUCUCUAUUAGUUGCUUUAGUUCUCUUUCCAACAGAGGAUUGAGCAUCA"}, "B10": {"name": "chr1:174042033:174042034:+_ENSMUSG00000026553_ENSMUST00000135192|mus_hu|FALSE|FALSE (ssRNA)", "RNA": "GGGAGUUCUACAGUCCGACGAUCGGGACGACACUCCCUGUCUAGGCAGUAUACAUUGUUGCCCUUCACCCGUGUGACAUAGAUGGGUAAAUCCAGAGUUCGAAUGAUCCCGUGGUCCCCAGUGGUGACAGCAUAUUUGAUGUGCAACAGAGGAUUGAGCAUCA"}, "B11": {"name": "chr11:116106860:116106861:-_ENSMUSG00000020780_ENSMUST00000021133|mus_mus|motif|central (ssRNA)", "RNA": "GGGAGUUCUACAGUCCGACGAUCGAGGCACAGGGGACACAGAGACCCUGACUCUGGGCCCAGAAGAUGACAGGCGGCAAAAGUAAGUCACAAACACACAAGAUGAACGGCCGCAGGGCUGAGGGUGCUGAGCUCUGCCCCAGCCAACAGAGGAUUGAGCAUCA"}, "B12": {"name": "chr2:129025431:129025432:+_ENSMUSG00000027397_ENSMUST00000028880|mus_mus|FALSE|FALSE (ssRNA)", "RNA": "GGGAGUUCUACAGUCCGACGAUCUUGCCACAGUAGAUUCCAUUCUCUAGUGUAGUGGUUCUUUAAAUAAUAAGAGAAUUACUAAGCGGCUUUUGAGAUGUGUAAACGGAAUGAGGUAUCAAAAUGCUAUAAUAAAUAGUAUAUCAACAGAGGAUUGAGCAUCA"}, "B13": {"name": "chr16:14041815:14041816:+_ENSG00000175595_ENST00000311895|hu_mus|FALSE|FALSE (ssRNA)", "RNA": "GGGAGUUCUACAGUCCGACGAUCGGGGCACCAGAGCAGCCGCAAACGCGGGAAGUGCAAGGUGAGGAGCGUAAGCUUGGAGCUCACAUCGCUGCUGCUCAUCUCCUGGAAGAAGGCACCUCGUGGCGCCAGGGAGAAGGGCUUCAACAGAGGAUUGAGCAUCA"}, "B14": {"name": "64826014_64827627_1440_CDS_ENSMUSG00000034263_ENSMUST00000170517|mouse|control|control (ssRNA)", "RNA": "GGGAGUUCUACAGUCCGACGAUCCUUCUUGCUGUCUGCUUGGGAGUAGAGCAUUCCAUGCCAUUCAGGCCCUAGUUGGACAAGUGCCACCAUUCCUUCCACCUUCAGGCUGCCGUGGAGCAGGACACAGAAGUUGGGUAUUUUCAACAGAGGAUUGAGCAUCA"}, "B15": {"name": "chr2:37458628:37458629:-_ENSMUSG00000026915_ENSMUST00000072186|mus_hu|FALSE|FALSE (ssRNA)", "RNA": "GGGAGUUCUACAGUCCGACGAUCCUUAUACUGAAGCCCAGGCCUGAUCUGAUUUAGCCUCAUUAGUGCAUUCAUAAGGUCUAUUGCUUUACUAUCCAGAAUUUUCCUUAAGUUUCGUUUCAUCUUCUUGUUGGGGUCUUUAUCCAACAGAGGAUUGAGCAUCA"}, "B16": {"name": "42271357_42271477_1278_3pUTR_ENSG00000087152_ENST00000454077|human|control|control (ssRNA)", "RNA": "GGGAGUUCUACAGUCCGACGAUCCUCACAGAAUAAAUAGGAAAACCGCCUCCCCACCAAACUUAUGUCCAAGGCAUAAUAUGUCCAGGUCUGAGUCCUGCACGCCGAGGAGUCGUGCUCCAUUGCAGAGGACUUUGACACCCCCAACAGAGGAUUGAGCAUCA"}, "B17": {"name": "chr12:16052864:16052865:+_ENSG00000023734_ENST00000419869|hu_hu|FALSE|FALSE (ssRNA)", "RNA": "GGGAGUUCUACAGUCCGACGAUCCCAUAGUCUCAAUGUUCCAUCUUCUGAACCACUGGCAUAGAGUUCUCCAUCAGGACUAAAUCUCACACAGUGAAUAGGACCAAAGUGUCCCUUGUAGGAUUCUAAUUCUUCUCCACUAUUCAACAGAGGAUUGAGCAUCA"}, "B18": {"name": "chr14:78183846:78183847:+_ENSG00000119705_ENST00000557342|hu_hu|hu_hu_hu_mus_False|48_48 (ssRNA)", "RNA": "GGGAGUUCUACAGUCCGACGAUCUCUCAGAAAUCUUUCUUCAUCAGAUGUUUGAGCUCCGUGCAAAGCCUUUGCUCUUUGAGCUUGAACCUGGACCUAUGGGAGGGAAAGCACUGUCAGAAAAGGUAAUUUUUUUUUUAAAGACAACAGAGGAUUGAGCAUCA"}, "B19": {"name": "chr15:25616465:25616466:-_ENSG00000114062_ENST00000438097|hu_hu|FALSE|FALSE (ssRNA)", "RNA": "GGGAGUUCUACAGUCCGACGAUCCGCUUUGCAAAAUAAUGGCAAAGCCAUUUCCAGAUAUUCAGGACUGUGGAGAUUUCUAUUCUCCAUUACGAUAAUGAACAAAUUCAGAUAAUUAGGAUCUCGAGAGUAUACAUUGUGAUACAACAGAGGAUUGAGCAUCA"}, "B20": {"name": "chr3:41266964:41266965:+_ENSG00000168036_ENST00000349496|hu_hu|FALSE|FALSE (ssRNA)", "RNA": "GGGAGUUCUACAGUCCGACGAUCGAUGGCCAGUAAGCCCUCACGAUGAUGGGAAAGGUUAUGCAAGGUCCCAGCGGUACAACGAGCUGUUUCUACAUCAUUUGUAUUCUGCAUGGUACGUACAAUAGCAGACACCAUCUGAGGCAACAGAGGAUUGAGCAUCA"}, "B21": {"name": "chr2:198351390:198351391:-_ENSG00000144381_ENST00000345042|hu_hu|hu_hu_hu_mus_False|1_68 (ssRNA)", "RNA": "GGGAGUUCUACAGUCCGACGAUCUCAUUCCCACCCUCCACAGAAAGGCUGCUUCUGAACUCUCAUGGUGGUGGCAAGCGCUACAGUCCUGAUGCUCACAGAACAGUAGAGAUGCCUCAGUGAUUUAAGUUGAAAGCAGCAGUACAACAGAGGAUUGAGCAUCA"}, "B22": {"name": "chr2:168006541:168006542:-_ENSMUSG00000051149_ENSMUST00000088001|mus_hu|FALSE|FALSE (ssRNA)", "RNA": "GGGAGUUCUACAGUCCGACGAUCUUACAUUAAGCACAAUACAGCAAUUUAUUUAGAUGCUUAAAAUGAAUACAAAGGGAAAAUAAAGAUCACAAAAUUAUACAUACUACAACAGUGUGUCAUAUAUUAGAUGGUAUAAAUGAACAACAGAGGAUUGAGCAUCA"}}, "note": "The list shows a part of the results.", "data": [{"molecular_target": "T1, UNK ZnF1-3 (human, UniProt Q9C0B0 31-174)", "T1 sequence": "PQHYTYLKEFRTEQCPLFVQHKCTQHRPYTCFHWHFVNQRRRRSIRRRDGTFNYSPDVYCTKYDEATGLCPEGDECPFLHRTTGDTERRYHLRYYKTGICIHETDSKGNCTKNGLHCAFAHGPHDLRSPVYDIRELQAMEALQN", "experiment": "nsRBNS (natural sequence RNA bind-n-seq); RBNS binding buffer (assumed for nsRBNS): 25 mM Tris pH 7.5, 150 mM KCl, 3 mM MgCl2, 0.01% Triton X-100, 500 ug/ml BSA, 20 U/ml SUPERase-In, 4 C; UNK is unkempt and MSI1 is Musashi-1; names of the RNAs are library labels; protein concentration not given here; high values mean tight binding", "units": {"binding signal": "enrichment R"}, "values": [{"binder": "B1", "binding signal": 1.18}, {"binder": "B2", "binding signal": 0.944}, {"binder": "B3", "binding signal": 1.17}, {"binder": "B4", "binding signal": 0.889}, {"binder": "B5", "binding signal": 0.944}, {"binder": "B6", "binding signal": 0.914}, {"binder": "B7", "binding signal": 2.17}, {"binder": "B8", "binding signal": 0.886}, {"binder": "B9", "binding signal": 0.475}, {"binder": "B10", "binding signal": 0.919}, {"binder": "B11", "binding signal": 1.52}, {"binder": "B12", "binding signal": 1.39}, {"binder": "B13", "binding signal": 1.31}, {"binder": "B14", "binding signal": 1.13}, {"binder": "B15", "binding signal": 0.447}, {"binder": "B16", "binding signal": 1.02}, {"binder": "B17", "binding signal": 0.664}, {"binder": "B18", "binding signal": 0.98}, {"binder": "B19", "binding signal": 0.528}, {"binder": "B20", "binding signal": 0.991}, {"binder": "B21", "binding signal": 1.17}, {"binder": "B22", "binding signal": 1.84}]}]}
